Laboratory results published in the supplement of paper PMC4604168 (melanoma cell lines).
Some of the results follow. Many values rest on one well or one pass, so single values are uncertain.

What was measured:
Experiment in all cases: cell count relative to DMSO control; melanoma cells; higher = more viable cells
Settings in all cases: library dose: standard library concentration; 72 h
G361 = tested on: G361
IPC-298 = tested on: IPC-298
IST-MEL1 = tested on: IST-MEL1
LB2518-MEL = tested on: LB2518-MEL
LOXIMVI = tested on: LOXIMVI
MEL-HO = tested on: MEL-HO
MZ2-MEL = tested on: MZ2-MEL
MeWo = tested on: MeWo
RPMI7951 = tested on: RPMI7951
RVH-421 = tested on: RVH-421
SkMel28 = tested on: SkMel28
SkMel2 = tested on: SkMel2
SkMel30 = tested on: SkMel30
SkMel5 = tested on: SkMel5
UACC257 = tested on: UACC257
UACC62 = tested on: UACC62
WM115 = tested on: WM115
WM1716 = tested on: WM1716
WM1745 = tested on: WM1745
WM3526 = tested on: WM3526
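Also: cells treated in 1,536-well plates, then fixed and DAPI-stained, with nuclei counted from automated high-throughput microscope images.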

Row | SMILES | cell count (G361) | cell count (IPC-298) | cell count (IST-MEL1) | cell count (LB2518-MEL) | cell count (LOXIMVI) | cell count (MEL-HO) | cell count (MZ2-MEL) | cell count (MeWo) | cell count (RPMI7951) | cell count (RVH-421) | cell count (SkMel28) | cell count (SkMel2) | cell count (SkMel30) | cell count (SkMel5) | cell count (UACC257) | cell count (UACC62) | cell count (WM115) | cell count (WM1716) | cell count (WM1745) | cell count (WM3526)
1 | COc1cc2c(Oc3ccc4[nH]c(C)cc4c3F)ncnc2cc1OCCCN1CCCC1 [cediranib] + CC(C)CCN1c2nc(Nc3cc(F)c(O)c(F)c3)ncc2N(C)C(=O)C1C [BID1870] (first compound 2 µM, partner dose 1 µM) | 62.4% | 83.9% | 87.9% | 101% | 67% | 65.8% | 88% | 65.2% | 71.6% | 66.7% | 58.1% | 71.4% | 67.2% | 92.3% | 105% | 80.6% | 96.8% | 85.6% | 64.5% | 60.3%
2 | Cc1ccc(NC(=O)c2cccc(N(C)C)c2)cc1NC(=O)c1ccc(O)cc1 + O=C(Nc1ccccc1)c1cc([N+](=O)[O-])ccc1Cl [GW9662] (first compound 10 µM, partner dose 10 µM) | 90.2% | 101% | 99.2% | 62.1% | 99.5% | 86.1% | 98.8% | 76.8% | 57.8% | 93.5% | 71.1% | 89.2% | 86% | 76.8% | 79.6% | 84.4% | 67.6% | 77.1% | 56.8% | 91.3%
3 | CCc1ccc(CCOc2ccc(CC3SC(=O)NC3=O)cc2)nc1 (stereo not given) [pioglitazone] + Oc1cc(-c2nc(-c3ccccc3)[nH]c2-c2ccncc2)ccc1Cl [L779450] (first compound 10 µM, partner dose 1 µM) | 58.2% | 78.7% | 90.4% | 85.8% | 83.3% | 75.3% | 88.2% | 80.9% | 91.1% | 71.9% | 35.1% | 27.4% | 80.3% | 64.5% | 96.7% | 47.1% | 47.1% | 68.6% | 53.9% | 62.6%
4 | CCCCCCCCc1ccc(CCC(N)(CO)CO)cc1 [fingolimod] + C#Cc1cccc(Nc2ncnc3cc(OCCOC)c(OCCOC)cc23)c1 [erlotinib] (first compound 10 µM, partner dose 4 µM) | 0.415% | 16.1% | 5.21% | 0.375% | 6.07% | 0.641% | 0.848% | 25.9% | 0.673% | 1.16% | 0.541% | 0.452% | 9.46% | 42.7% | 66.2% | 5.41% | 13.8% | 58.3% | 8.33% | 26.2%
5 | CCCCCCCCc1ccc(CCC(N)(CO)CO)cc1 [fingolimod] + Cc1nc(Nc2ncc(C(=O)Nc3c(C)cccc3Cl)s2)cc(N2CCN(CCO)CC2)n1 [dasatanib] (first compound 10 µM, partner dose 0.02 µM) | 0.794% | 77.4% | 9.72% | 0.202% | 33.6% | 6.46% | 47.2% | 53.1% | 1.68% | 10.6% | 4.99% | 1.21% | 49.3% | 54.4% | 65.4% | 20.7% | 25% | 45.7% | 36.2% | 57.7%
6 | Cc1ccc(NC(=O)c2cccc(N(C)C)c2)cc1NC(=O)c1ccc(O)cc1 + O=C(Nc1cccc(Cl)c1)Nc1ncc(CCNc2ncnc3ccsc23)s1 [SNS314] (first compound 10 µM, partner dose 0.004 µM) | 48.7% | 56.6% | 57.4% | 67% | 86.6% | 78.3% | 82.5% | 57.6% | 50.8% | 87.8% | 38.6% | 76.4% | 96.5% | 97.2% | 73.1% | 97.6% | 46.8% | 53% | 81.5% | 70.5%
7 | CC(C)(C)c1cnc(CSc2cnc(NC(=O)C3CCNCC3)s2)o1 + COc1cc(N2CCC(N3CCN(C)CC3)CC2)ccc1Nc1ncc(Cl)c(Nc2ccccc2S(=O)(=O)C(C)C)n1 [NVP-TAE684] (first compound 0.05 µM, partner dose 0.4 µM) | 85.5% | 88.8% | 95.3% | 65.7% | 72.1% | 82.3% | 68.5% | 55.9% | 28.1% | 81.9% | 39.6% | 51.6% | 108% | 48.1% | 92% | 50.8% | 63.1% | 58% | 49.3% | 68.6%
8 | CC(C)(C)c1cnc(CSc2cnc(NC(=O)C3CCNCC3)s2)o1 + CCCCCCCCCCCC1=C(O)C(=O)C=C(O)C1=O [Embelin] (first compound 0.05 µM, partner dose 6 µM) | 70.6% | 71.9% | 65.1% | 75.2% | 86.2% | 70% | 76.3% | 95.3% | 48.8% | 76.5% | 53.1% | 61.9% | 85.2% | 65.9% | 86.9% | 59.3% | 76.4% | 79.9% | 69.1% | 96.7%
9 | NC(=O)c1ccc(N(C(N)=O)c2c(F)cccc2F)nc1-c1ccc(F)cc1F + Cn1nnc2c(C(N)=O)ncn2c1=O [temozolomide] (first compound 2 µM, partner dose 10 µM) | 92% | 89.9% | 74% | 84% | 104% | 92% | 86.4% | 111% | 85.3% | 86.5% | 35.1% | 90.2% | 57.3% | 74.9% | 99% | 56.6% | 78.5% | 54.5% | 86.3% | 93.4%
10 | CCCCCCCCc1ccc(CCC(N)(CO)CO)cc1 [fingolimod] + CN1CCN(c2ccc3nc(-c4c(N)c5c(F)cccc5[nH]c4=O)[nH]c3c2)CC1 [Dovitinib] (first compound 10 µM, partner dose 0.5 µM) | 0.256% | 58.2% | 5% | 0.245% | 10.7% | 0.965% | 45.1% | 7.4% | 0.348% | 4.85% | 0.27% | 4.91% | 12.4% | 43.7% | 52.9% | 14% | 12.1% | 45.4% | 6.1% | 19.8%
11 | CCCCCCCCc1ccc(CCC(N)(CO)CO)cc1 [fingolimod] + Cn1cncc1[C@@](N)(c1ccc(Cl)cc1)c1ccc2c(c1)c(-c1cccc(Cl)c1)cc(=O)n2C [tipifarnib] (first compound 10 µM, partner dose 0.05 µM) | 0.261% | 58.8% | 11.1% | 0.189% | 4.47% | 1.52% | 1.37% | 6.66% | 1.51% | 28.9% | 2.79% | 0.502% | 10.2% | 42.3% | 62.3% | 15.4% | 12.1% | 9.55% | 6% | 19.1%
12 | Cc1ccc(NC(=O)c2cccc(N(C)C)c2)cc1NC(=O)c1ccc(O)cc1 + COc1ccc(COc2ccc(Cc3cnc(N)nc3N)cc2OC)cc1 [GW2580] (first compound 10 µM, partner dose 5 µM) | 78.3% | 84.2% | 101% | 136% | 94% | 87% | 81.7% | 79% | 106% | 104% | 66.5% | 91.4% | 69.2% | 76.7% | 83.5% | 94.1% | 106% | 92.8% | 96.8% | 87.3%
13 | CCc1ccc(CCOc2ccc(CC3SC(=O)NC3=O)cc2)nc1 (stereo not given) [pioglitazone] + COc1cc2ncnc(Nc3ccc(Oc4ccccc4)cc3)c2cc1OC [SrcI1] (first compound 10 µM, partner dose 10 µM) | 76.5% | 71.4% | 96.3% | 116% | 77.2% | 91.3% | 72.4% | 82.4% | 38.4% | 118% | 71.2% | 80.3% | 98.6% | 84% | 73.9% | 83.2% | 88.3% | 80.5% | 65.9% | 65.4%
14 | NC(=O)c1ccc(N(C(N)=O)c2c(F)cccc2F)nc1-c1ccc(F)cc1F + CCCS(=O)(=O)Nc1ccc(F)c(C(=O)c2c[nH]c3ncc(Cl)cc23)c1F [PLX4720] (first compound 2 µM, partner dose 0.4 µM) | 58.7% | 71.5% | 81.6% | 102% | 111% | 77.1% | 82.9% | 81.9% | 99.6% | 72.1% | 41.8% | 103% | 82.6% | 65.7% | 86.8% | 42.5% | 87.9% | 66.3% | 78.1% | 51.3%
15 | CCCCCCCCc1ccc(CCC(N)(CO)CO)cc1 [fingolimod] + CO[C@H]1C[C@@H]2CC[C@@H](C)[C@@](O)(O2)C(=O)C(=O)N2CCCC[C@H]2C(=O)O[C@H]([C@H](C)C[C@@H]2CC[C@@H](OCCO)[C@H](OC)C2)CC(=O)[C@H](C)/C=C(\C)[C@@H](O)[C@@H](OC)C(=O)[C@H](C)C[C@H](C)/C=C/C=C/C=C/1C [everolimus] (first compound 10 µM, partner dose 0.1 µM) | 0.84% | 44.8% | 7.83% | 0.204% | 13% | 44.8% | 3.99% | 14.8% | 2.19% | 2.85% | 3.97% | 0.476% | 15.1% | 55.9% | 55.2% | 8.69% | 6.85% | 17% | 22.3% | 40.9%
16 | CC(C)(C)c1cnc(CSc2cnc(NC(=O)C3CCNCC3)s2)o1 + COC(=O)c1sccc1S(=O)(=O)Nc1ccc(Nc2ccccc2)cc1OC [GSK0660] (first compound 0.05 µM, partner dose 5 µM) | 90.3% | 101% | 102% | 83.3% | 98.7% | 90.6% | 79.5% | 84.6% | 30.9% | 101% | 66.3% | 80.1% | 85.3% | 76.3% | 105% | 76.3% | 96.2% | 82.4% | 71.8% | 92%
17 | NC(=O)c1ccc(N(C(N)=O)c2c(F)cccc2F)nc1-c1ccc(F)cc1F + O=C(CCCCCCC(=O)Nc1ccccc1)NO [vorinostat] (first compound 2 µM, partner dose 0.4 µM) | 59.4% | 78.8% | 98.3% | 80% | 78.7% | 89.7% | 115% | 80.7% | 79.9% | 12.2% | 42.6% | 66.8% | 101% | 63.3% | 73.5% | 69.5% | 87% | 97.1% | 69.7% | 80%
18 | Cc1ccc(NC(=O)c2cccc(N(C)C)c2)cc1NC(=O)c1ccc(O)cc1 + NC(=O)Nc1cc(-c2cccc(F)c2)sc1C(=O)N[C@H]1CCCNC1 [AZD7762] (first compound 10 µM, partner dose 0.1 µM) | 93% | 86.5% | 86.7% | 54.5% | 95.7% | 74.2% | 99.5% | 79.6% | 47.2% | 112% | 24.6% | 79.1% | 101% | 109% | 104% | 65.7% | 65.9% | 66.7% | 44.2% | 58.1%
